Measured values from the supplement of paper PMC4967469.
pIC50: −log10 of the molar value. A lower IC50 marks a more sensitive line; where the fit passes the top or lowest dose, that dose stands as a limit. AUC, from the same fit, is the share of area under the viability curve across the 256-fold dose range; the more sensitive the line, the further below 1. For some assays here: The top dose, if marked as inferred, was derived from the fitted curves, not read from the paper. For some assays here: Where an entry number is given, a second screen of the drug exists; the two often differ.

Tests used:
Assay in all cases: Viability of human cancer cell lines after 72 h of drug (GDSC screen)
PLX4720 = compound: CCCS(=O)(=O)Nc1ccc(F)c(C(=O)c2c[nH]c3ncc(Cl)cc23)c1F [PLX4720]; conditions: top dose 10 µM
Procedure: (§1)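 Human cancer cell lines in 384-well plates, medium with 10% serum, drug for 72 h over a 256-fold dose range (nine 2-fold or five 4-fold steps up to the top dose). Adherent lines were fixed and stained with the nucleic acid dye Syto60, suspension lines read with resazurin; signal relative to control wells, capped at 0 and 100%. One two-parameter sigmoid per drug and line, fitted in a mixed model over all curves with the slope shared within a line.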

PHA-793887 = compound: CC(C)CC(=O)Nc1n[nH]c2c1CN(C(=O)C1CCN(C)CC1)C2(C)C [PHA-793887]; conditions: top dose 10.24 µM
Procedure: as §1

Y-39983 = compound: C[C@@H](N)c1ccc(C(=O)Nc2ccnc3[nH]ccc23)cc1 [Y-39983]; conditions: top dose 20 µM; top dose inferred
Procedure: as §1

Epothilone B = compound: C/C(=C\c1csc(C)n1)[C@@H]1C[C@@H]2O[C@]2(C)CCC[C@H](C)[C@H](O)[C@@H](C)C(=O)C(C)(C)[C@@H](O)CC(=O)O1 [Epothilone B]; conditions: top dose 0.032 µM; top dose inferred
Procedure: as §1

TPCA-1 = compound: NC(=O)Nc1sc(-c2ccc(F)cc2)cc1C(N)=O [TPCA-1]; conditions: top dose 20 µM
Procedure: as §1

[1] = screen: GDSC drug entry 1371, top dose inferred

Cell Line	AUC (PLX4720; screen: GDSC drug entry 1036)	pIC50 (PLX4720; screen: GDSC drug entry 1036)	AUC (PLX4720; [1])	pIC50 (PLX4720; [1])	AUC (PHA-793887)	pIC50 (PHA-793887)	AUC (Y-39983)	pIC50 (Y-39983)	AUC (Epothilone B)	pIC50 (Epothilone B)	AUC (TPCA-1)	pIC50 (TPCA-1)
CAL-33 (head and neck, adherent)	0.912	< 5.00	0.955	< 5.00	0.923	< 4.99	0.979	< 4.70	0.478	8.76	0.821	4.94
CAL-39 (cervix, adherent)	0.986	< 5.00	0.975	< 5.00	0.957	< 4.99	0.915	< 4.70	0.296	9.28	0.937	< 4.70
CAL-51 (breast, adherent)	0.985	< 5.00	0.981	< 5.00	0.971	< 4.99	0.991	< 4.70	0.446	8.84	0.991	< 4.70
CAL-54 (kidney, adherent)	0.941	< 5.00	0.962	< 5.00	0.978	< 4.99	0.973	< 4.70	0.895	< 7.49	0.687	5.34
CAL-62 (thyroid, adherent)	0.965	< 5.00	0.972	< 5.00	0.921	< 4.99	0.984	< 4.70	0.305	9.23	0.961	< 4.70
CAL-72 (osteosarcoma, adherent)	0.873	< 5.00	0.971	< 5.00	0.984	< 4.99	0.983	< 4.70	0.916	< 7.49	0.984	< 4.70
CAL-78 (chondrosarcoma, adherent)	0.96	< 5.00	0.952	< 5.00	0.986	< 4.99	0.887	< 4.70	0.848	7.53	0.916	< 4.70
CAL-85-1 (breast, adherent)	0.962	< 5.00	0.965	< 5.00	0.806	5.15	0.922	< 4.70	0.361	9.13	0.753	5.07
CAL-120 (breast, adherent)	0.928	< 5.00	0.929	< 5.00	0.95	< 4.99	0.853	< 4.70	0.744	7.90	0.77	5.01
CAMA-1 (breast, adherent)			0.978	< 5.00	0.909	< 4.99	0.97	< 4.70	0.788	7.74	0.968	< 4.70
CAPAN-1 (pancreas, adherent)	0.987	< 5.00	0.985	< 5.00	0.752	5.43	0.985	< 4.70	0.619	8.35	0.903	< 4.70
CCF-STTG1 (glioma, adherent)	0.988	< 5.00	0.987	< 5.00	0.934	< 4.99	0.965	< 4.70	0.665	8.24	0.886	< 4.70
CCK-81 (large intestine, adherent)	0.99	< 5.00	0.988	< 5.00	0.97	< 4.99	0.943	< 4.70	0.528	8.63	0.845	4.88
CHL-1 (melanoma, adherent)	0.843	5.19	0.959	< 5.00	0.834	5.21	0.944	< 4.70	0.354	9.09	0.483	5.95
CHP-212 (neuroblastoma, adherent)	0.988	< 5.00	0.987	< 5.00	0.988	< 4.99	0.978	< 4.70	0.595	8.45	0.977	< 4.70
CHSA0011 (chondrosarcoma, adherent)	0.965	< 5.00	0.95	< 5.00	0.926	< 4.99	0.975	< 4.70	0.978	< 7.49	0.9	< 4.70
CHSA0108 (chondrosarcoma, adherent)	0.95	< 5.00	0.959	< 5.00	0.818	5.16	0.975	< 4.70	0.927	< 7.49	0.798	4.95
CHSA8926 (chondrosarcoma, adherent)	0.932	< 5.00	0.825	5.01	0.975	< 4.99	0.456	6.04	0.943	< 7.49	0.954	< 4.70
COLO-205 (large intestine, suspension)	0.319	6.71	0.771	5.42	0.723	5.57	0.935	< 4.70	0.344	9.13	0.796	5.04
COLO-678 (large intestine, semi-adherent)	0.985	< 5.00	0.983	< 5.00	0.945	< 4.99	0.979	< 4.70	0.977	< 7.49	0.975	< 4.70
COLO-679 (melanoma, adherent)	0.589	5.95	0.543	6.08	0.759	5.40	0.969	< 4.70	0.309	9.27	0.933	< 4.70
COLO-680N (oesophagus, adherent)	0.986	< 5.00	0.985	< 5.00	0.906	< 4.99	0.981	< 4.70	0.688	8.13	0.981	< 4.70
COLO-783 (melanoma, adherent)	0.838	5.19	0.78	5.40	0.987	< 4.99	0.99	< 4.70	0.99	< 7.49	0.968	< 4.70

Cell Line	AUC (PLX4720; screen: GDSC drug entry 1036)	pIC50 (PLX4720; screen: GDSC drug entry 1036)	AUC (PLX4720; [1])	pIC50 (PLX4720; [1])	AUC (PHA-793887)	pIC50 (PHA-793887)	AUC (Y-39983)	pIC50 (Y-39983)	AUC (Epothilone B)	pIC50 (Epothilone B)	AUC (TPCA-1)	pIC50 (TPCA-1)
COLO-792 (melanoma, adherent)			0.985	< 5.00	0.904	< 4.99	0.956	< 4.70	0.963	< 7.49	0.979	< 4.70
COR-L23 (large cell lung carcinoma, adherent)	0.936	< 5.00	0.966	< 5.00	0.542	6.08	0.915	< 4.70	0.42	8.92	0.831	4.91
COR-L105 (lung adenocarcinoma, adherent)			0.969	< 5.00	0.817	5.13	0.822	4.82	0.693	8.10	0.559	5.73
CP50-MEL-B (melanoma, adherent)	0.393	6.50	0.606	5.92	0.988	< 4.99	0.986	< 4.70	0.804	7.80	0.764	5.14
CS1 (bone, adherent)	0.984	< 5.00	0.982	< 5.00	0.761	5.39	0.86	< 4.70	0.655	8.25	0.859	4.70
Ca9-22 (head and neck, adherent)	0.986	< 5.00	0.987	< 5.00	0.902	< 4.99	0.979	< 4.70	0.409	8.94	0.836	4.92
Ca-Ski (cervix, adherent)	0.969	< 5.00	0.956	< 5.00	0.512	6.16	0.862	< 4.70	0.569	8.50	0.642	5.49
CaR-1 (large intestine, adherent)	0.975	< 5.00			0.912	< 4.99	0.978	< 4.70	0.797	7.60	0.908	< 4.70
Calu-3 (lung adenocarcinoma, adherent)	0.981	< 5.00	0.981	< 5.00	0.983	< 4.99	0.983	< 4.70	0.482	8.75	0.982	< 4.70
Caov-4 (ovary, adherent)	0.98	< 5.00	0.977	< 5.00	0.923	< 4.99	0.98	< 4.70	0.848	< 7.49	0.969	< 4.70
Capan-2 (pancreas, adherent)	0.985	< 5.00	0.977	< 5.00	0.938	< 4.99	0.985	< 4.70	0.794	7.74	0.887	< 4.70
ChaGo-K-1 (non-small cell lung carcinoma, adherent)	0.948	< 5.00	0.983	< 5.00	0.899	< 4.99	0.954	< 4.70	0.697	8.10	0.951	< 4.70
DAN-G (pancreas, adherent)	0.94	< 5.00			0.895	5.01	0.984	< 4.70	0.992	< 7.49	0.926	< 4.70
DBTRG-05MG (glioma, adherent)	0.795	5.26	0.842	5.05	0.897	< 4.99	0.951	< 4.70	0.686	8.14	0.855	< 4.70
DK-MG (glioma, adherent)	0.97	< 5.00	0.968	< 5.00	0.939	< 4.99	0.942	< 4.70	0.831	< 7.49	0.886	< 4.70
DMS-53 (small cell lung carcinoma, adherent)			0.975	< 5.00	0.988	< 4.99	0.988	< 4.70	0.978	< 7.49	0.926	< 4.70
DMS-273 (small cell lung carcinoma, adherent)	0.972	< 5.00			0.665	5.72	0.932	< 4.70	0.484	8.74	0.542	5.79
DOK (head and neck, adherent)	0.908	< 5.00	0.973	< 5.00	0.911	< 4.99	0.973	< 4.70	0.948	< 7.49	0.963	< 4.70
DU-145 (prostate, adherent)	0.938	< 5.00	0.894	< 5.00	0.974	< 4.99	0.968	< 4.70	0.347	9.15	0.899	< 4.70
Daoy (medulloblastoma, adherent)			0.947	< 5.00	0.869	5.10	0.964	< 4.70	0.179	9.61	0.927	< 4.70
Detroit562 (head and neck, adherent)	0.97	< 5.00	0.983	< 5.00	0.969	< 4.99	0.975	< 4.70	0.484	8.74	0.976	< 4.70
DoTc2-4510 (cervix, adherent)	0.927	< 5.00	0.987	< 5.00	0.95	< 4.99	0.978	< 4.70	0.394	8.98	0.944	< 4.70
